Measurements published in patent publication US10485854B2, “Method of reducing biofilms” (Lysando AG, priority 2010, dated 2019).

What was measured:
[1] = system: different exponential growing Gram-negative species; experiment: Anti-Gram-negative spectrum, overall statement on all species of Example 7; assay type: cell-based
[2] = system: biofilm of the Pseudomonas aeruginosa strains 2572 and 2573; experiment: Biofilm reduction, crystal violet assay; conditions: 25 μg/well, 12 h; compared to the endolysin OBP
[3] = system: biofilm of the Acinetobacter baumannii strain DSMZ30007; experiment: Biofilm reduction, crystal violet assay; conditions: 25 μg/well, 12 h; compared to the endolysin OBP

B1: PKOBPgpLYS: fusion protein SEQ ID NO: 61: endolysin OBPgpLYS (SEQ ID NO: 7) with peptide SEQ ID NO: 11 (protein)
chain: MGSKRKKRKKRKKNSEKNASIIMSIQRTLASLSLYGGRIDGLFGEKCRGAIILMLNKVYPNFSTNKLPSNTYEAESVFTFLQTALAGVGLYTITIDGKWGGTSQGAIDALVKSYRQITEAERAGSTLPLGLATVMSKHMSIEQLRAMLPTDRQGYAEVYIDPLNETMDIFEINTPLRIAHFMAQILHETACFKYTEELASGKAYEGRADLGNTRPGDGPLFKGRGLLQITGRLNYVKCQVYLREKLKDPTFDITSSVTCAQQLSESPLLAALASGYFWRFIKPKLNETADKDDIYWVSVYVNGYAKQANPYYPNRDKEPNHMKERVQMLAVTKKALGIV
modifications: PKOBPgpLYS
- effect with EDTA on the activity [1]: clear synergistic effect
- effect compared to unmodified OBPgpLYS ([1]; all bacterial species tested, both in the absence as the presence of 0.5 mM EDTA): added effect
- reduction of biofilm (crystal violet, absorption 590 nm) [2]: massive reduction
- reduction of biofilm (crystal violet, absorption 590 nm) [3]: massive reduction
